{"source": "paper PMC7819943", "about": "“Rice protein-binding microarrays: a tool to detect cis-acting elements near promoter regions in rice”", "note": "This is one part of the list."}
{"target": "T1, OsWOX13 (Oryza sativa, UniProt Q5QMM3 1-267)", "T1 sequence": "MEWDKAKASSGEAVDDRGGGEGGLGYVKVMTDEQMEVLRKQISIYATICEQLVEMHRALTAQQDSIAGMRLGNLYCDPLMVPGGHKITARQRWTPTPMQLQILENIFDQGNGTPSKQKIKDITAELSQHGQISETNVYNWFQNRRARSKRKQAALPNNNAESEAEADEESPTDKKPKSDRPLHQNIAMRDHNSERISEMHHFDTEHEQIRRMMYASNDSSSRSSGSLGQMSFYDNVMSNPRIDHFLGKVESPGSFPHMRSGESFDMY", "experiment": "protein-binding microarray (RPBM); PBS, 2% BSA, 51.3 ng/ul salmon testes DNA, 50 uM zinc acetate, 200 nM TF, 25 C, 1 h; high values mean tight binding", "conditions": "protein: recombinant; tags: N-terminal polyhistidine and DsRed monomer fusion (pET32a); label: CyDye5-dUTP incorporated in the synthesized complementary strand; 3' TTTTT single-stranded linker to array surface; dsDNA, one strand shown", "procedure,_shortened": "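Binding signal here means per-feature fluorescence intensity in arbitrary units. The values were read on an Axon 4000B scanner after a custom Agilent array, double-stranded by primer extension with Cy5-dUTP, was incubated with 200 nM protein at 25 °C for 1 h in PBS with 2% BSA, salmon testes DNA and 50 µM zinc acetate, then washed. The proteins were transcription factors with an N-terminal polyhistidine tag and DsRed, expressed in E. coli BL21-CodonPlus and purified on Ni–NTA.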"}
{"sequence": "TCATTGATTAAGAAGAATAGTTAATTCTTGGGCAACTGCGCGGAGTCACCTAGTGCAG", "binding signal": "25800 fluorescence intensity (a.u.)"}
{"sequence": "TTTAATTTCACCAGATAAGATATACACAAACCCTGGTGATCGGAGTCACCTAGTGCAG", "binding signal": "4560 fluorescence intensity (a.u.)"}
{"sequence": "TAGCAATTGCTAATCACATTTATGGGTATGGCTTCCCTTACGGAGTCACCTAGTGCAG", "binding signal": "13000 fluorescence intensity (a.u.)"}
{"sequence": "GGCAAATTAGTGCAAGATTTGCAGATCCAAGAATGTACAGCGGAGTCACCTAGTGCAG", "binding signal": "26500 fluorescence intensity (a.u.)"}
{"sequence": "GGGAGATTGGAAGATCTATAATCTTAAGTGTGCGATCATTCGGAGTCACCTAGTGCAG", "binding signal": "22300 fluorescence intensity (a.u.)"}
{"sequence": "TTCTTTAACAGGCCTAATTAGCAAGAGGCCCAGATAATAGCGGAGTCACCTAGTGCAG", "binding signal": "18400 fluorescence intensity (a.u.)"}
{"sequence": "AATCCAATCTAAATGGGTAGGATAATAACACCATCGTTTGCGGAGTCACCTAGTGCAG", "binding signal": "5190 fluorescence intensity (a.u.)"}
{"sequence": "CTGTTTAATTTTGCTATTAAAATTTGAATTGCATTTGTTCCGGAGTCACCTAGTGCAG", "binding signal": "24600 fluorescence intensity (a.u.)"}
{"sequence": "CCCAAATCTGGCAATTACAACTTCGGATAGAACAATCCAACGGAGTCACCTAGTGCAG", "binding signal": "4570 fluorescence intensity (a.u.)"}
{"sequence": "GTATTGTGATTTGTGAATCAGTGAATATGTGAATGTGATTCGGAGTCACCTAGTGCAG", "binding signal": "13200 fluorescence intensity (a.u.)"}
{"sequence": "CGAATTACCCTTAAATATAAATTTATTGTAGTCTAATCATCGGAGTCACCTAGTGCAG", "binding signal": "5140 fluorescence intensity (a.u.)"}
{"sequence": "ATTGATTTATAAAATTAGTATCATCAAAGGCGTAAAACGTCGGAGTCACCTAGTGCAG", "binding signal": "34400 fluorescence intensity (a.u.)"}
{"sequence": "CATGACAGAGTGATCAAACACCAACCAATTAAACCGACCTCGGAGTCACCTAGTGCAG", "binding signal": "15300 fluorescence intensity (a.u.)"}
{"sequence": "TCCTAGATTAATTAACCAAGATCCCGGCCTGAATTGAAGTCGGAGTCACCTAGTGCAG", "binding signal": "36500 fluorescence intensity (a.u.)"}
{"sequence": "TGTTAAATTATCATCCAACATAATTCACATAATGTTTCAACGGAGTCACCTAGTGCAG", "binding signal": "12800 fluorescence intensity (a.u.)"}
{"sequence": "ATAACTGGAATTTATGTCACAAACTAGATGATTCCATCTGCGGAGTCACCTAGTGCAG", "binding signal": "10700 fluorescence intensity (a.u.)"}
{"sequence": "GATTAATTTGCCATTGGATCCAAGCACACTCCTAGGTAAGCGGAGTCACCTAGTGCAG", "binding signal": "17400 fluorescence intensity (a.u.)"}
{"sequence": "CAGATTGGATTCTATTCTAAACCCCAGCTAATACGCCACGCGGAGTCACCTAGTGCAG", "binding signal": "13300 fluorescence intensity (a.u.)"}
{"sequence": "TAGATATAATTACCTTTTCAGGACTCTATCCACGTGCGGCCGGAGTCACCTAGTGCAG", "binding signal": "6740 fluorescence intensity (a.u.)"}
{"sequence": "AAGGACTGACACGAAACAGACGGACACATGCACCTCACCCCGGAGTCACCTAGTGCAG", "binding signal": "5180 fluorescence intensity (a.u.)"}
{"sequence": "CATCCATCCAACTTAATTTGACAGCAACTCACTGCAGCTTCGGAGTCACCTAGTGCAG", "binding signal": "12000 fluorescence intensity (a.u.)"}
{"sequence": "ATAATTTATTCCCACTTGACAAGGCCGGCATCGCTTGGTTCGGAGTCACCTAGTGCAG", "binding signal": "7030 fluorescence intensity (a.u.)"}
{"sequence": "GATGGCCATAATTATGGATAGATTTCACTTTGGAATGAATCGGAGTCACCTAGTGCAG", "binding signal": "16800 fluorescence intensity (a.u.)"}
{"sequence": "AGTCCCATCTAAACAGGGCCTAATTGTTCTAGGACATGGGCGGAGTCACCTAGTGCAG", "binding signal": "3510 fluorescence intensity (a.u.)"}
{"sequence": "TTTGGGTGTTAGTGTCTTAATTAGTGTGTGAGCCCCATCCCGGAGTCACCTAGTGCAG", "binding signal": "3790 fluorescence intensity (a.u.)"}
{"sequence": "CAATGAATAATTGAACAGGATTTGAGAAGTGATCAAGCTCCGGAGTCACCTAGTGCAG", "binding signal": "16700 fluorescence intensity (a.u.)"}
{"sequence": "TTGTGAATGATTTGGGATGAACTATGTTGTTGTGAATGATCGGAGTCACCTAGTGCAG", "binding signal": "12000 fluorescence intensity (a.u.)"}
{"sequence": "CTCAATTAATTTCGTCCTAAGTGAACCTGTCATCTGTAGCCGGAGTCACCTAGTGCAG", "binding signal": "26100 fluorescence intensity (a.u.)"}
{"sequence": "AATCATGGCGTAATTAGGCTTAAAAGATTCGTCTCGCAATCGGAGTCACCTAGTGCAG", "binding signal": "3620 fluorescence intensity (a.u.)"}
{"sequence": "ATGCATTCAACTAATCAATATTATTTTCTATTGGTTTAACCGGAGTCACCTAGTGCAG", "binding signal": "3560 fluorescence intensity (a.u.)"}
{"sequence": "TATAATTATTTTGAGTCACTACTAACCTCCTTGCCCGTTACGGAGTCACCTAGTGCAG", "binding signal": "22800 fluorescence intensity (a.u.)"}
{"sequence": "AACCTGCTCCTGTCAAATCACACATTAACCTTCACCAACCCGGAGTCACCTAGTGCAG", "binding signal": "3350 fluorescence intensity (a.u.)"}
{"sequence": "TCACCAAGACCATAAATTGACACATCGCATGCCACCAGGGCGGAGTCACCTAGTGCAG", "binding signal": "10800 fluorescence intensity (a.u.)"}
{"sequence": "TCCATAATCAGTGCCAATTACCCTAATGCTGAGAAAAGATCGGAGTCACCTAGTGCAG", "binding signal": "22800 fluorescence intensity (a.u.)"}
{"sequence": "ATATTGATAGACGGACAAATCAATAGACATGTTGGCTGAACGGAGTCACCTAGTGCAG", "binding signal": "48300 fluorescence intensity (a.u.)"}
{"sequence": "GATTAATTAATCAAGACACACTGATAGTGATCCAACCGTTCGGAGTCACCTAGTGCAG", "binding signal": "34600 fluorescence intensity (a.u.)"}
{"sequence": "GGGGATTGAGACTCTGATGAGCAGAACTGAGGTGTGGCAACGGAGTCACCTAGTGCAG", "binding signal": "27100 fluorescence intensity (a.u.)"}
{"sequence": "GTGACACCGTTATATGATGATTAATGATACGATAATAAGTCGGAGTCACCTAGTGCAG", "binding signal": "5670 fluorescence intensity (a.u.)"}
{"sequence": "GGGCGGGCGGGCTCGAGGTTGTGGTGGGGCGTGTGGCAGGCGGAGTCACCTAGTGCAG", "binding signal": "3240 fluorescence intensity (a.u.)"}
{"sequence": "AGAAAAGATGAAAGGTCTAGATTGATTTTACTACCAGTAGCGGAGTCACCTAGTGCAG", "binding signal": "6660 fluorescence intensity (a.u.)"}
{"sequence": "CTCCCTGGCTCTGATTAATTTCTCCCCAACCCCACTCACTCGGAGTCACCTAGTGCAG", "binding signal": "6830 fluorescence intensity (a.u.)"}
{"sequence": "TATTCTCATGATTTATATGAACACAAACCAATGGCCACATCGGAGTCACCTAGTGCAG", "binding signal": "5710 fluorescence intensity (a.u.)"}
